Experimental data: patent US7541342B2, “Use of PKC-activating compounds as cardioprotectants and as apoptosis-inducing anti-tumor agents” (University of Tennessee Research Foundation, priority 2005, dated 2009)

Tests used:
Bcr-Abl = Bcr-Abl expression immunoblot in K562 cells
cardiomyocytes = experiment: Monitoring of ROS generation (CM-H2DCFDA oxidation); format: cell-based, rat; details: 2.0 μM DOX, 2.0 μM AD 198 or 3.0 μM H2O2 for 2 hr
Source text: Primary murine cardiocyocytes from female C57 mice (Harlan, Indianapolis, Ind., United States of America) isolated as described by Lester, J. W., et al. (Am. J. Physiol. Heart Circ. Physiol., 271, H1778-J1785 (1996)), were preloaded with 5-(and-6)-chloromethyl-2′,7′-dichlorodihydrofluorescein diacetate, acetyl ester (CM-H2DCFDA; Molecular Probes, Eugene, Oreg., United States of America) in PBS for 1 hr, followed by removal of PBS and replacement with warm RPMI-1640 medium with 10% FBS. […] Cellular fluorescence was quantified by flow cytometry at an […] wavelength of 525 nm.

[1] = Chronic anthracycline cardiotoxicity model (Bertazzoli); details: DOX 1.15 to 4.6 mg/kg
[2] = i.v. single dose LD50 (30 days); details: mice
PKC-ε = experiment: PKC translocation immunoblot in primary cardiomyocytes; format: cell-based, rat; details: 0.1 μM
Source text: FIG. 22 is an immunoblot analysis of PKC translocation in drug-treated rat cardiomyocytes. […] Total membrane fractions were isolated by differential centrifugation in the absence of non-ionic detergent, subjected to SDS-PAGE and prepared for immunoblot analysis using antibodies against the PKC isoforms.

## COc1cccc2c1C(=O)c1c(O)c3c(c(O)c1C2=O)C[C@@](O)(C(=O)CO)CC3O[C@H]1C[C@H](NCc2ccccc2)[C@H](O)[C@H](C)O1 (some centres unmarked) [AD 288, N-Benzyladriamycin]
Bcr-Abl; 0.25 μM combined with 10 μM imatinib, after 24 hours
  loss of Bcr-Abl expression, combination: 90%
Bcr-Abl; 72 hrs, imatinib 10 μM, AD 198 or AD 288 0.25 μM
  Bcr-Abl expression, single agent: slight decrease

## COc1cccc2c1C(=O)c1c(O)c3c(c(O)c1C2=O)C[C@@](O)(C(=O)CO)C[C@@H]3O[C@H]1C[C@H](N)[C@H](O)[C@H](C)O1 [DOX, Doxorubicin]
cardiomyocytes
  increase in CM-H2DCFDA fluorescence: 37 fold
[1]
  animals with overt cardiac damage: 90-100%
[2]
  i.v. single dose LD50 (30 days): 23 mg/kg

## OO [H2O2, hydrogen peroxide]
cardiomyocytes
  increase in CM-H2DCFDA fluorescence: approximately 26 fold

## CCCCCCCCCCCCCC(=O)O[C@@H]1[C@@H](C)[C@@]2(O)[C@@H](C=C(CO)C[C@]3(O)C(=O)C(C)=C[C@@H]23)[C@@H]2C(C)(C)[C@]12OC(C)=O [PMA, reference compound]
PKC-ε; 5 min exposure
  increase in membrane-associated PKC-ε versus DMSO: 5 fold
PKC-ε; after 30 min
  decrease of membrane-associated PKC-ε: approximately 50%
